# The list shows a part of the results. Interaction screen of human proteins with wild-type SARS-CoV-2 proteins by split-DHFR complementation in yeast, 1 µg/mL methotrexate. Value = fitness of the pair (three or more lineages) minus that of the viral protein without a human partner, on a scale set by negative (0) and fused positive (1) controls, mean of up to three cultures; higher = more likely to interact. Active = false discovery rate below 0.05 (one-sided t-test) in at least one culture. Nearly all pairs are not hits, and differences among them are mostly noise (correlation between cultures about 0.3); most hits were seen in one culture only. Human sequences are the Swiss-Prot entries looked up by gene name; the clone may be another isoform. NSP2 values were corrected by the authors for a growth advantage. Listed are human proteins with a hit and a random twelfth of the others.
# B1: PAK1, Q13153 (protein)
# chain: MSNNGLDIQDKPPAPPMRNTSTMIGAGSKDAGTLNHGSKPLPPNPEEKKKKDRFYRSILPGDKTNKKKEKERPEISLPSDFEHTIHVGFDAVTGEFTGMPEQWARLLQTSNITKSEQKKNPQAVLDVLEFYNSKKTSNSQKYMSFTDKSAEDYNSSNALNVKAVSETPAVPPVSEDEDDDDDDATPPPVIAPRPEHTKSVYTRSVIEPLPVTPTRDVATSPISPTENNTTPPDALTRNTEKQKKKPKMSDEEILEKLRSIVSVGDPKKKYTRFEKIGQGASGTVYTAMDVATGQEVAIKQMNLQQQPKKELIINEILVMRENKNPNIVNYLDSYLVGDELWVVMEYLAGGSLTDVVTETCMDEGQIAAVCRECLQALEFLHSNQVIHRDIKSDNILLGMDGSVKLTDFGFCAQITPEQSKRSTMVGTPYWMAPEVVTRKAYGPKVDIWSLGIMAIEMIEGEPPYLNENPLRALYLIATNGTPELQNPEKLSAIFRDFLNRCLEMDVEKRGSAKELLQHQFLKIAKPLSSLTPLIAAAKEATKNNH
# B2: SCN3B, Q9NY72 (protein)
# chain: MPAFNRLFPLASLVLIYWVSVCFPVCVEVPSETEAVQGNPMKLRCISCMKREEVEATTVVEWFYRPEGGKDFLIYEYRNGHQEVESPFQGRLQWNGSKDLQDVSITVLNVTLNDSGLYTCNVSREFEFEAHRPFVKTTRLIPLRVTEEAGEDFTSVVSEIMMYILLVFLTLWLLIEMIYCYRKVSKAEEAAQENASDYLAIPSENKENSAVPVEE
# B3: PSMB9, P28065 (protein)
# chain: MLRAGAPTGDLPRAGEVHTGTTIMAVEFDGGVVMGSDSRVSAGEAVVNRVFDKLSPLHERIYCALSGSAADAQAVADMAAYQLELHGIELEEPPLVLAAANVVRNISYKYREDLSAHLMVAGWDQREGGQVYGTLGGMLTRQPFAIGGSGSTFIYGYVDAAYKPGMSPEECRRFTTDAIALAMSRDGSSGGVIYLVTITAAGVDHRVILGNELPKFYDE
# B4: HMG20A, Q9NP66 (protein)
# chain: MENLMTSSTLPPLFADEDGSKESNDLATTGLNHPEVPYSSGATSSTNNPEFVEDLSQGQLLQSESSNAAEGNEQRHEDEQRSKRGGWSKGRKRKKPLRDSNAPKSPLTGYVRFMNERREQLRAKRPEVPFPEITRMLGNEWSKLPPEEKQRYLDEADRDKERYMKELEQYQKTEAYKVFSRKTQDRQKGKSHRQDAARQATHDHEKETEVKERSVFDIPIFTEEFLNHSKAREAELRQLRKSNMEFEERNAALQKHVESMRTAVEKLEVDVIQERSRNTVLQQHLETLRQVLTSSFASMPLPGSGETPTVDTIDSYMNRLHSIILANPQDNENFIATVREVVNRLDR
# Experiments:
# Assay in all cases: yeast fitness gain over the viral ORF with no human partner (scaled fitness); higher = more likely to interact
# SARS-CoV-2 E = target: SARS-CoV-2 E
# Procedure: (§1)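 Split mouse DHFR complementation in pooled diploid yeast: human ORFeome clones carry one fragment and viral ORFs the other; barcoded lineages compete in 1 µg/mL methotrexate and fitness is read by barcode sequencing in up to three cultures.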
# SARS-CoV-2 M = target: SARS-CoV-2 M
# Procedure: as §1
# SARS-CoV-2 NSP1 = target: SARS-CoV-2 NSP1
# Procedure: as §1
# SARS-CoV-2 NSP10 = target: SARS-CoV-2 NSP10
# Procedure: as §1
# SARS-CoV-2 NSP12 = target: SARS-CoV-2 NSP12
# Procedure: as §1
# SARS-CoV-2 NSP13 = target: SARS-CoV-2 NSP13
# Procedure: as §1
# SARS-CoV-2 NSP15 = target: SARS-CoV-2 NSP15
# Procedure: as §1
# SARS-CoV-2 NSP16 = target: SARS-CoV-2 NSP16
# Procedure: as §1
# SARS-CoV-2 NSP2 = target: SARS-CoV-2 NSP2
# Procedure: as §1
# SARS-CoV-2 NSP5 = target: SARS-CoV-2 NSP5
# Procedure: as §1
# SARS-CoV-2 NSP6 = target: SARS-CoV-2 NSP6
# Procedure: as §1
# SARS-CoV-2 NSP7 = target: SARS-CoV-2 NSP7
# Procedure: as §1
# SARS-CoV-2 NSP8 = target: SARS-CoV-2 NSP8
# Procedure: as §1
# SARS-CoV-2 NSP9 = target: SARS-CoV-2 NSP9
# Procedure: as §1
# SARS-CoV-2 ORF10 = target: SARS-CoV-2 ORF10
# Procedure: as §1
# SARS-CoV-2 ORF3A = target: SARS-CoV-2 ORF3A
# Procedure: as §1
# SARS-CoV-2 ORF3B = target: SARS-CoV-2 ORF3B
# Procedure: as §1
# SARS-CoV-2 ORF6 = target: SARS-CoV-2 ORF6
# Procedure: as §1
# SARS-CoV-2 ORF7A = target: SARS-CoV-2 ORF7A
# Procedure: as §1
# SARS-CoV-2 ORF7B = target: SARS-CoV-2 ORF7B
# Procedure: as §1
# SARS-CoV-2 ORF8 = target: SARS-CoV-2 ORF8
# Procedure: as §1
# SARS-CoV-2 ORF9B = target: SARS-CoV-2 ORF9B
# Procedure: as §1
# [1] = target: SARS-CoV-2 ORF9Bwu (the 73-codon ORF)
# Procedure: as §1
# SARS-CoV-2 S = target: SARS-CoV-2 S
# Procedure: as §1
# SARS-CoV-2 N = target: SARS-CoV-2 N
# Procedure: as §1
# SARS-CoV-2 NSP14 = target: SARS-CoV-2 NSP14
# Procedure: as §1
# SARS-CoV-2 NSP4 = target: SARS-CoV-2 NSP4
# Procedure: as §1
Binder,yeast fitness gain (SARS-CoV-2 E),yeast fitness gain (SARS-CoV-2 M),yeast fitness gain (SARS-CoV-2 NSP1),yeast fitness gain (SARS-CoV-2 NSP10),yeast fitness gain (SARS-CoV-2 NSP12),yeast fitness gain (SARS-CoV-2 NSP13),yeast fitness gain (SARS-CoV-2 NSP15),yeast fitness gain (SARS-CoV-2 NSP16),yeast fitness gain (SARS-CoV-2 NSP2),yeast fitness gain (SARS-CoV-2 NSP5),yeast fitness gain (SARS-CoV-2 NSP6),yeast fitness gain (SARS-CoV-2 NSP7),yeast fitness gain (SARS-CoV-2 NSP8),yeast fitness gain (SARS-CoV-2 NSP9),yeast fitness gain (SARS-CoV-2 ORF10),yeast fitness gain (SARS-CoV-2 ORF3A),yeast fitness gain (SARS-CoV-2 ORF3B),yeast fitness gain (SARS-CoV-2 ORF6),yeast fitness gain (SARS-CoV-2 ORF7A),yeast fitness gain (SARS-CoV-2 ORF7B),yeast fitness gain (SARS-CoV-2 ORF8),yeast fitness gain (SARS-CoV-2 ORF9B),yeast fitness gain [1],yeast fitness gain (SARS-CoV-2 S),yeast fitness gain (SARS-CoV-2 N),yeast fitness gain (SARS-CoV-2 NSP14),yeast fitness gain (SARS-CoV-2 NSP4)
B1,inactive: -0.0252,inactive: -0.0294,inactive: 0.0281,inactive: 0.00989,inactive: 0.012,inactive: -0.0486,inactive: 0.0268,inactive: -0.288,active: 0.558,inactive: -0.0728,inactive: -0.148,inactive: -0.183,inactive: 0.00693,inactive: 0.13,inactive: -0.222,inactive: -0.177,inactive: 0.0491,inactive: 0.0382,inactive: 0.103,inactive: -0.673,inactive: 0.03,inactive: -0.00448,inactive: -0.0487,inactive: -0.0237,–,–,–
B2,inactive: -0.0149,–,–,inactive: -0.0938,inactive: -0.229,inactive: -0.0395,–,–,inactive: -0.187,inactive: -0.133,inactive: -0.0358,inactive: -0.15,inactive: -0.0268,inactive: -0.0362,inactive: 0.00347,inactive: 0.0639,inactive: -0.0265,inactive: -0.0178,inactive: 0.274,inactive: 0.155,inactive: 0.12,inactive: -0.00471,inactive: 0.0331,inactive: -0.102,inactive: 0.0807,–,–
B3,inactive: -0.0125,inactive: -0.196,inactive: -0.0145,inactive: -0.154,inactive: 0.0782,inactive: 0.0559,inactive: 0.00764,inactive: 0.00855,inactive: -0.17,inactive: 0.0897,inactive: 0.0617,inactive: 0.0381,inactive: -0.0273,inactive: 0.0146,inactive: -0.00967,inactive: 0.128,inactive: 0.0255,inactive: 0.0137,inactive: -0.0904,inactive: -0.0531,inactive: -0.000703,inactive: 0.03,inactive: -0.0329,inactive: -0.0491,inactive: 0.0716,inactive: 0.108,inactive: -0.0573
B4,inactive: -0.144,–,–,inactive: 0.116,inactive: -0.203,inactive: 0.0158,–,–,inactive: -0.207,inactive: -0.101,–,–,–,–,inactive: -0.0828,–,inactive: -0.0506,inactive: 0.0341,–,inactive: -0.0723,inactive: 0.104,–,–,inactive: -0.00507,–,–,–
